Results as given in PubChem BioAssay AID360 (National Center for Advancing Translational Sciences (NCATS), 2006).
In all, about 48,000 compounds went through this assay and about 550 (1.1%) were called active. Another 4% or so got no clear call; they are omitted. Rule as the data show it: active = potency below about 15 µM; inconclusive = mostly about 16 µM to 33 µM; inactive = weaker than that. Some of the results follow.

Molecular target: Lysosomal acid glucosylceramidase (Homo sapiens) (UniProt P04062)
Sequence of UniProt P04062 (P04062 whole entry, looked up): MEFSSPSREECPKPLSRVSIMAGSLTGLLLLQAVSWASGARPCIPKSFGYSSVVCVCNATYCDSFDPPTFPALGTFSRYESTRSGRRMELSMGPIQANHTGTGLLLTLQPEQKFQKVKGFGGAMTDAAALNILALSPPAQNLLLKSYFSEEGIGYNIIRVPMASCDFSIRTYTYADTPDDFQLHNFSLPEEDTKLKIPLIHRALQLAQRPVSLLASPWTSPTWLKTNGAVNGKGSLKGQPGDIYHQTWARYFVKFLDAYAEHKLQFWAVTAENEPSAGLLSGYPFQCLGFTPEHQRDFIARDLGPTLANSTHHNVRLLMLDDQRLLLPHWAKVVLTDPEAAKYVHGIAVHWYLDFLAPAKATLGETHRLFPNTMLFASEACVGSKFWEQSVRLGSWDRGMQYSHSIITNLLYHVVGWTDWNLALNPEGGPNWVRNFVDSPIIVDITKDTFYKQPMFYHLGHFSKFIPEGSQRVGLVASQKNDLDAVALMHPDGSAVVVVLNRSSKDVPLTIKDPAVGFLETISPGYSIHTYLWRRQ
Assay: Glucocerebrosidase;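 also: the screen sought inhibitors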
Settings: purified enzyme, resorufin glucoside fluorescence (screen aimed at inhibitors), 20 min
Outline: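 Normal human glucocerebrosidase (0.2 nM final) was assayed with resorufin β-D-glucopyranoside (30 uM final) in 50mM citric acid/KH2PO4, 10mM sodium taurocholate, 0.01% tween-20, pH 5.9. Compounds were titrated; fluorescence (Ex 548, Em 600) read after 20 min at RT.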
Potency is read from the fitted curve at half-maximal effect.

Potency, inactive:
CCC(C)c1ccc(O)c(NC(=O)c2cncc(Br)c2)c1 (stereo not drawn) > 76.9 µM
O=C1CCCc2c1cc(C(=O)NCc1ccco1)c(=O)n2-c1ccc(Cl)cc1 > 76.9 µM
C(=N\n1cnnc1)/c1ccc2c(c1)OCCO2 > 76.9 µM
CC1CN(c2nc3ccccn3c(=O)c2/C=C(\C#N)S(=O)(=O)c2ccccc2)CC(C)O1 (stereo not drawn) > 76.9 µM
COc1ccc(CCNC(=O)CC2COc3ccccc3O2)cc1OC (stereo not drawn) > 76.9 µM
O=C(COc1ccc(S(=O)(=O)N2CCCC2)cc1Cl)Nc1ccc2c(c1)OCO2 > 76.9 µM
CCOC(=O)C1=C(C)NC(=O)NC1c1cccc(O)c1 (stereo not drawn) > 76.9 µM
COCCCn1c(C(C)C)nc2oc3cc(OC)ccc3c(=O)c2c1=O > 76.9 µM
CCSC1=NCN(CCCC(=O)O)CN1 > 76.9 µM
c1coc(-c2nn3c(-c4ccco4)nnc3s2)c1 > 76.9 µM
Cc1ccc2c(CSc3nc4ccccc4c(=O)n3CCCO)cc(=O)oc2c1 > 76.9 µM
Cc1ccc(NC(=O)COc2nc(C)cs2)cc1 > 76.9 µM
CCC(C)(C)n1c(=O)[nH]c2c(c1=O)CCC2 > 76.9 µM
CC(C)(C)NC(=O)CN(C(=O)CS(=O)CC(=O)Nc1ccc(F)cc1)c1ccc(Cl)cc1 (stereo not drawn) > 76.9 µM
CS(=O)(=O)c1ccc2nc(NC(=O)Oc3ccccc3)sc2c1 > 76.9 µM
O=C(Nc1ccccc1)c1ccc(S(=O)(=O)NCc2ccco2)cc1 > 76.9 µM
CC(=O)c1cccc(NC(=O)NC(C)C2CCCO2)c1 (stereo not drawn) > 76.9 µM
COc1cc(CNc2nc3ccccc3[nH]2)cc(OC)c1OC > 76.9 µM
O=C(NC1(C(F)(F)F)Oc2ccccc2O1)N1CCCC1 > 76.9 µM
CCOC(=O)c1cc(-c2ccc3c(c2)OCCO3)nc2c1c(C)nn2CCC#N > 76.9 µM
CCOC(=O)c1nnn(-c2nonc2N)c1CN(C)Cc1ccccc1 > 76.9 µM
COC(=O)c1cccc(-n2nnnc2SCC(=O)Nc2cc(C)on2)c1 > 76.9 µM
COc1ccccc1OCC(O)Cn1c(Br)nc2c1c(=O)[nH]c(=O)n2C (stereo not drawn) > 76.9 µM
Cc1cccc(NC(=O)Nc2cc(C)on2)c1 > 76.9 µM
Cc1ccsc1C(=O)OCC(=O)NCc1ccc2c(c1)OCO2 > 76.9 µM
CS(=O)(=O)N(CC(=O)NCC1CCCO1)c1cc(Cl)cc(Cl)c1 (stereo not drawn) > 76.9 µM
Cc1nc(SCC(=O)N2CCN(c3ccccc3)CC2)c2oc3ccccc3c2n1 > 76.9 µM
O=C(NCCCN1CCN(C2CCCCC2)CC1)Nc1ccccc1C(F)(F)F > 76.9 µM
CCOc1ccc(N2C(=O)CC(NCCc3ccncc3)C2=O)cc1 (stereo not drawn) > 76.9 µM
O=C(Cn1c(=O)oc2ccccc21)Nc1ccc2c(c1)OCCO2 > 76.9 µM
O=C(O)C1Cc2c([nH]c3ccccc23)C(c2ccc3c(c2)OCO3)N1 (stereo not drawn) > 76.9 µM
CC1=CC2(C#N)C3(N=C(N)C2(C#N)C(c2ccccc2)N1)OCCO3 (stereo not drawn) > 76.9 µM
O=C(O)c1cn(-c2ccccc2)nc1-c1cccnc1 > 76.9 µM
COC(=O)Cc1c(C)nc2nc(NCc3c(F)cccc3Cl)[nH]n2c1=O > 76.9 µM
Cc1nnc(SCCN2C(=O)c3ccccc3C2=O)[nH]c1=O > 76.9 µM
CCOc1ccc2nc(NC(=O)CSC3=NCCS3)sc2c1 > 76.9 µM
COc1ccc(-c2ccc(-c3nnc(-c4cc(OC)ccc4OC)o3)cc2)cc1 > 76.9 µM
COC(=O)c1sc(NC(=O)COc2ccccc2)nc1C > 76.9 µM
CC(C)(C)c1ccc(NC(=O)COC(=O)C2=COCCO2)cc1 > 76.9 µM
C=CCn1cnc2c(c1=O)c1nc3ccccc3nc1n2-c1ccccc1 > 76.9 µM
Cc1cccc2cc(CN(Cc3ccco3)C(=O)NC3CCCCC3)c(=O)[nH]c12 > 76.9 µM
Cn1c(=O)c2c(nc(N3CCCCC3)n2CCCNC2=NCCCC2)n(C)c1=O > 76.9 µM
COc1ccccc1N1CCN(C(=O)COc2ccc(Cl)cc2)CC1 > 76.9 µM
COc1ccc(-c2onc3ccc(Cl)cc23)cc1OC > 76.9 µM
Cc1ccc(NC2=NC(C(=O)Nc3ccc(C)c(C)c3)CC(=O)N2)cc1 (stereo not drawn) > 76.9 µM
O=C(NCC1CCS(=O)(=O)C1)NCC1CCS(=O)(=O)C1 (stereo not drawn) > 76.9 µM
CCC1CCCN1Cn1cnc2c([nH]c3ccc(OC)cc32)c1=O (stereo not drawn) > 76.9 µM
O=C(Cn1cnnn1)Nc1ccccc1Cc1ccccc1 > 76.9 µM
Cc1ccc2nc(NC3=NCN(Cc4ccc5c(c4)OCO5)CN3)nc(C)c2c1 > 76.9 µM
COc1cc(C)c(Cl)cc1S(=O)(=O)N(C)C > 76.9 µM
Cc1c(C(=O)NCc2ccccn2)oc2ccc(S(=O)(=O)N3CCOCC3)cc12 > 76.9 µM
O=C(CN(c1ccc(F)cc1)S(=O)(=O)c1ccc2c(c1)OCCO2)NCc1ccccn1 > 76.9 µM
COc1cc(Br)cc(CN2CCN(C/C=C/c3ccccc3)CC2)c1O > 76.9 µM
Cc1ccc(S(=O)(=O)NCc2ccc(C(=O)NCCCN3CCN(C)CC3)cc2)cc1 > 76.9 µM
Cc1cc(C)c2nc(C(F)(F)F)nc(N3CC(C)OC(C)C3)c2c1 (stereo not drawn) > 76.9 µM
CSc1nc2oc3c(c2c2nncn12)CC(C)(C)SC3 > 76.9 µM
Cc1cccc(Nc2ccccc2C(=O)OCC(=O)N2CCOCC2)c1C > 76.9 µM
O=C(CSc1nnc(-c2cccnc2)n1Cc1ccco1)c1ccccc1 > 76.9 µM
